{"source": "a compilation of properties of binary mixtures (doi:10.1021/je950194b)", "assay": "xn = mol fraction of the nth substance listed", "conditions": "100 kPa", "note": "Some of these densities may be calculated back from excess volumes.", "data": [{"smiles": "CCC(=O)O", "note": "+ Cc1cc(C)cc(C)c1", "values": [{"measurement": "mass density", "setting": "313.15 K, x1 = 0.039", "result": 851.2, "unit": "kg/m3"}, {"measurement": "mass density", "setting": "313.15 K, x1 = 0.0956", "result": 854.8, "unit": "kg/m3"}, {"measurement": "mass density", "setting": "313.15 K, x1 = 0.2007", "result": 862.1, "unit": "kg/m3"}, {"measurement": "mass density", "setting": "313.15 K, x1 = 0.3474", "result": 873.9, "unit": "kg/m3"}, {"measurement": "mass density", "setting": "313.15 K, x1 = 0.3961", "result": 878.3, "unit": "kg/m3"}, {"measurement": "mass density", "setting": "313.15 K, x1 = 0.4527", "result": 883.8, "unit": "kg/m3"}, {"measurement": "mass density", "setting": "313.15 K, x1 = 0.5695", "result": 896.6, "unit": "kg/m3"}, {"measurement": "mass density", "setting": "313.15 K, x1 = 0.6164", "result": 902.3, "unit": "kg/m3"}, {"measurement": "mass density", "setting": "313.15 K, x1 = 0.6504", "result": 906.8, "unit": "kg/m3"}, {"measurement": "mass density", "setting": "313.15 K, x1 = 0.6807", "result": 911, "unit": "kg/m3"}, {"measurement": "mass density", "setting": "313.15 K, x1 = 0.7281", "result": 917.9, "unit": "kg/m3"}, {"measurement": "mass density", "setting": "313.15 K, x1 = 0.8219", "result": 933.4, "unit": "kg/m3"}, {"measurement": "mass density", "setting": "313.15 K, x1 = 0.9578", "result": 961.3, "unit": "kg/m3"}]}, {"smiles": "CCC(=O)O", "note": "+ CCCCCCCC", "values": [{"measurement": "mass density", "setting": "298.15 K, x1 = 0.0382", "result": 690.9, "unit": "kg/m3"}, {"measurement": "mass density", "setting": "298.15 K, x1 = 0.155", "result": 706.5, "unit": "kg/m3"}, {"measurement": "mass density", "setting": "298.15 K, x1 = 0.2576", "result": 722.3, "unit": "kg/m3"}, {"measurement": "mass density", "setting": "298.15 K, x1 = 0.413", "result": 751.2, "unit": "kg/m3"}, {"measurement": "mass density", "setting": "298.15 K, x1 = 0.5608", "result": 785.8, "unit": "kg/m3"}, {"measurement": "mass density", "setting": "298.15 K, x1 = 0.6551", "result": 813, "unit": "kg/m3"}, {"measurement": "mass density", "setting": "298.15 K, x1 = 0.7525", "result": 846.4, "unit": "kg/m3"}, {"measurement": "mass density", "setting": "298.15 K, x1 = 0.7937", "result": 862.6, "unit": "kg/m3"}, {"measurement": "mass density", "setting": "298.15 K, x1 = 0.8363", "result": 881, "unit": "kg/m3"}, {"measurement": "mass density", "setting": "298.15 K, x1 = 0.9358", "result": 931.6, "unit": "kg/m3"}, {"measurement": "mass density", "setting": "298.15 K, x1 = 0.9631", "result": 947.8, "unit": "kg/m3"}, {"measurement": "mass density", "setting": "298.15 K, x2 = 0.008", "result": 966.3, "unit": "kg/m3"}]}, {"smiles": "CCC(=O)O", "note": "+ C1CCOCC1", "values": [{"measurement": "mass density", "setting": "313.15 K, x1 = 0.0296", "result": 867, "unit": "kg/m3"}, {"measurement": "mass density", "setting": "313.15 K, x1 = 0.3615", "result": 901.6, "unit": "kg/m3"}, {"measurement": "mass density", "setting": "313.15 K, x1 = 0.3952", "result": 905.2, "unit": "kg/m3"}, {"measurement": "mass density", "setting": "313.15 K, x1 = 0.482", "result": 914.5, "unit": "kg/m3"}, {"measurement": "mass density", "setting": "313.15 K, x1 = 0.5345", "result": 920.2, "unit": "kg/m3"}, {"measurement": "mass density", "setting": "313.15 K, x1 = 0.5992", "result": 927.2, "unit": "kg/m3"}, {"measurement": "mass density", "setting": "313.15 K, x1 = 0.653", "result": 933.1, "unit": "kg/m3"}, {"measurement": "mass density", "setting": "313.15 K, x1 = 0.6856", "result": 936.7, "unit": "kg/m3"}, {"measurement": "mass density", "setting": "313.15 K, x1 = 0.7538", "result": 944.2, "unit": "kg/m3"}, {"measurement": "mass density", "setting": "313.15 K, x1 = 0.8324", "result": 952.9, "unit": "kg/m3"}, {"measurement": "mass density", "setting": "313.15 K, x1 = 0.9452", "result": 965.6, "unit": "kg/m3"}]}, {"smiles": "CCC(=O)O", "note": "+ C1CCCCC1", "values": [{"measurement": "mass density", "setting": "313.15 K, x1 = 0.0257", "result": 762.4, "unit": "kg/m3"}, {"measurement": "mass density", "setting": "313.15 K, x1 = 0.0991", "result": 771.4, "unit": "kg/m3"}, {"measurement": "mass density", "setting": "313.15 K, x1 = 0.3107", "result": 801.9, "unit": "kg/m3"}, {"measurement": "mass density", "setting": "313.15 K, x1 = 0.376", "result": 812.9, "unit": "kg/m3"}, {"measurement": "mass density", "setting": "313.15 K, x1 = 0.4285", "result": 822.2, "unit": "kg/m3"}, {"measurement": "mass density", "setting": "313.15 K, x1 = 0.4573", "result": 827.7, "unit": "kg/m3"}, {"measurement": "mass density", "setting": "313.15 K, x1 = 0.4944", "result": 834.8, "unit": "kg/m3"}, {"measurement": "mass density", "setting": "313.15 K, x1 = 0.6412", "result": 866.3, "unit": "kg/m3"}, {"measurement": "mass density", "setting": "313.15 K, x1 = 0.673", "result": 873.9, "unit": "kg/m3"}, {"measurement": "mass density", "setting": "313.15 K, x1 = 0.7165", "result": 884.6, "unit": "kg/m3"}, {"measurement": "mass density", "setting": "313.15 K, x1 = 0.8307", "result": 915.8, "unit": "kg/m3"}, {"measurement": "mass density", "setting": "313.15 K, x1 = 0.9059", "result": 939, "unit": "kg/m3"}, {"measurement": "mass density", "setting": "313.15 K, x1 = 0.9247", "result": 945.3, "unit": "kg/m3"}, {"measurement": "mass density", "setting": "313.15 K, x2 = 0.0076", "result": 968.9, "unit": "kg/m3"}]}, {"smiles": "CCC(=O)O", "note": "+ C1COCCO1", "values": [{"measurement": "mass density", "setting": "313.15 K, x1 = 0.0237", "result": 1010.7, "unit": "kg/m3"}, {"measurement": "mass density", "setting": "313.15 K, x1 = 0.0864", "result": 1009.7, "unit": "kg/m3"}, {"measurement": "mass density", "setting": "313.15 K, x1 = 0.1655", "result": 1008.2, "unit": "kg/m3"}, {"measurement": "mass density", "setting": "313.15 K, x1 = 0.2699", "result": 1006, "unit": "kg/m3"}, {"measurement": "mass density", "setting": "313.15 K, x1 = 0.3544", "result": 1003.9, "unit": "kg/m3"}, {"measurement": "mass density", "setting": "313.15 K, x1 = 0.409", "result": 1002.3, "unit": "kg/m3"}, {"measurement": "mass density", "setting": "313.15 K, x1 = 0.4445", "result": 1001.2, "unit": "kg/m3"}, {"measurement": "mass density", "setting": "313.15 K, x1 = 0.5396", "result": 998, "unit": "kg/m3"}, {"measurement": "mass density", "setting": "313.15 K, x1 = 0.5697", "result": 996.9, "unit": "kg/m3"}, {"measurement": "mass density", "setting": "313.15 K, x1 = 0.6632", "result": 993, "unit": "kg/m3"}, {"measurement": "mass density", "setting": "313.15 K, x1 = 0.7335", "result": 989.6, "unit": "kg/m3"}, {"measurement": "mass density", "setting": "313.15 K, x1 = 0.7945", "result": 986.2, "unit": "kg/m3"}, {"measurement": "mass density", "setting": "313.15 K, x1 = 0.8857", "result": 980.5, "unit": "kg/m3"}, {"measurement": "mass density", "setting": "313.15 K, x1 = 0.9233", "result": 977.8, "unit": "kg/m3"}, {"measurement": "mass density", "setting": "313.15 K, x2 = 0.0123", "result": 972.7, "unit": "kg/m3"}]}]}
